Structures are written as SMILES. The campaign covered roughly 48,000 compounds. About 550 (1.1%) were called active. About 4% were inconclusive and are not listed. Cut-off read from the data, not from the text of the source: active = potency below about 15 µM; inconclusive = mostly about 16 µM to 33 µM; inactive = weaker than that. The list shows a part of the results.
Potency is the fitted concentration of half-maximal effect.

The test addresses Lysosomal acid glucosylceramidase (Homo sapiens) (UniProt P04062). Kind of test: Glucocerebrosidase.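 Note: the screen sought inhibitors.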 As to conditions: purified enzyme, resorufin glucoside fluorescence (screen aimed at inhibitors), 20 min; series mostly up to 77 µM. An excerpt: NCGC Assay Overview: Beta-glucocerebrosidase catalyzes the hydrolysis of beta-glucocerebroside to glucose and ceramide. The inherited deficiency of beta-glucocerebrosidase results in Gaucher disease, which is characterized by a wide variety of symptoms including hepatosplenomegaly, anemia, thrombocytopenia, bony lesions and bone marrow infiltration with characteristic storage cells, known as Gaucher cells. There are also forms of the disorder affecting the central nervous system. Patients with the same genotypes can manifest with diverse clinical presentations and it is believed that improper folding and trafficking of beta-glucocerbrosidase may contribute to the phenotypes observed. Low molecular weight molecules, acting as chaperones, may potentially restore trafficking of misfolded beta-glucocerebrosidase from the endoplasmic reticulum to the lysosomes, thereby enhancing functional lysosomal beta-glucocerebrosidase activity. Using normal beta-glucocerebrosidase, an assay was developed to screen for small molecule inhibitors that could potentially act as molecular chaperones on the mutant forms [developed with NIH investigator Dr. Ellen Sidransky's laboratory]. Two pro-fluorescent substrates were chosen for two screens against a small molecule library. One beta-glucocerebrosidase assay used Resorufin beta-D-Glucopyranoside (Marker Gene Technology Inc.), generating a red fluorescent product. The second assay used Fluorescein di-beta-D-Glucopyranoside, generating a blue fluorescent product. […] The IC50 values of Conduritol B Epoxide, a known glucocerebrosidase inhibitor, were determined to be 87.5 uM and 117 uM, respectively. The use of two difference pro-fluorescent substrates in the screens helped to eliminate false positives. All compounds were screened in a titration series resulting in AC50s (e.g., IC50s or EC50s).
Sequence of UniProt P04062 (P04062 whole entry, looked up): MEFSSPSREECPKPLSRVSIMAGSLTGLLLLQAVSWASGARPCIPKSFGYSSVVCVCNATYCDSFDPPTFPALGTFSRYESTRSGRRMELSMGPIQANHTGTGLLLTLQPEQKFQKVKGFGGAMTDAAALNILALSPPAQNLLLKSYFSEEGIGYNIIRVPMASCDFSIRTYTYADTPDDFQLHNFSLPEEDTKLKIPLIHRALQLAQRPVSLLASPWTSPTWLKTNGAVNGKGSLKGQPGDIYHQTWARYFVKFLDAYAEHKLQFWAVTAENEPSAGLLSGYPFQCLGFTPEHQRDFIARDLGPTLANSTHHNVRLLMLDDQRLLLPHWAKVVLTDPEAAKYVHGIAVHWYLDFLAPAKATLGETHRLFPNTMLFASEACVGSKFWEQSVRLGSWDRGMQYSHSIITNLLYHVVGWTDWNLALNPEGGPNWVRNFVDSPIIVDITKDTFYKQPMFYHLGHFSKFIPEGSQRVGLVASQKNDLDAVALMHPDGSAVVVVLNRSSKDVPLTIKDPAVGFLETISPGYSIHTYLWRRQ
NCGC Assay Protocol Summary: Both enzyme and substrate were diluted in buffer composed of 50mM citric acid/KH2PO4, 10mM sodium taurocholate and 0.01% tween-20 at pH 5.9. The final concentration of the enzyme was 0.2 nM in both assays. The compound library was titrated in 7 to 15 concentrations for the primary screens with a final concentration ranging from 0.6 nM to 50 uM. This particular assay protocol is for the "red" substrate, and it was performed in 1536-well plate format as follows: Red fluorescence substrate assay: 2 uL enzyme 23 nL compound 1 uL substrate (final concentration of 30 uM) Incubate at room temperature (RT) for 20 minutes Read the plate in Viewlux plate reader (Ex=548(7) and Em=600(10)).
On to `Cn1c(C(=O)N2CCCC(C(=O)NCCCc3ccccc3)C2)cc2sccc21` (stereo not drawn), for which the Potency result was “inactive”.

`CC(=O)Nc1ccc(N(C(=O)c2cnccn2)C(C(=O)NC2CCCCC2)c2ccc(O)cc2)cc1` (stereo not drawn): the Potency is inactive: > 76.9 µM.

With `COC(=O)NCc1cccc(CNC(=O)OC)c1`, the Potency was inactive: > 76.9 µM.

On to `CCN(CC)S(=O)(=O)c1cc(C(=O)O)ccc1Cl`, for which the Potency was inactive: > 76.9 µM.

Regarding `COc1ccc(S(=O)(=O)N(C)c2ccc(C(=O)N3CCOCC3)cc2)cc1`, the Potency is inactive: > 76.9 µM.

As for `Nc1nncn1C(=O)CCCN1C(=O)c2ccccc2C1=O`, the Potency was inactive: > 76.9 µM.

Consider `Cc1cc(C)nc(Sc2c(C)n[nH]c2C)n1`, for which the Potency was inactive: > 76.9 µM.

As to `Cc1ccc2c(c1)N(CC(=O)Nc1ccc3c(c1)OCCO3)C(=O)CO2`, the Potency was inactive: > 76.9 µM.

Consider `O=C(Nc1cccnc1)c1noc2c1CCCCC2`, for which the Potency was inactive: > 76.9 µM.

As for `O=C(NCC(=O)N(Cc1cccs1)C(C(=O)NC1CCCC1)c1ccncc1)c1ccco1` (stereo not drawn), the Potency was inactive: > 76.9 µM.

Regarding `COc1ccc(CNC(=O)CSc2nc3nc(C)cc(C)n3n2)cc1`, the Potency is inactive: > 76.9 µM.

As to `Cn1cc(CN2CCc3ccccc3C2)c2ccccc21`, the Potency was inactive: > 76.9 µM.

For the compound `CCCN(CCC)CCCNS(=O)(=O)c1ccc2c(c1)oc(=O)n2C`, the Potency is inactive: > 76.9 µM.

On to `CCN(C(=O)c1cn(CC)c(=O)c2cc(OC)c(OC)cc12)c1ccccc1C`, for which the Potency was inactive: > 76.9 µM.

As to `O=C(O)C1CCN(S(=O)(=O)c2cccnc2)CC1`, the Potency was inactive: > 76.9 µM.

As to `CCCN(CCC)C(=O)Cn1ccc(=N)c2ccccc21`, the Potency was inactive: > 76.9 µM.

Regarding `CCn1c(SCC(=O)N2CCCc3ccccc32)nnc1-c1ccco1`, the Potency is inactive: > 76.9 µM.

With `COc1ccc(CNc2cc(C)nc3ncnn23)c(OC)c1`, the Potency is inactive: > 76.9 µM.

As for `Cc1csc(NC(=O)C2C3C=CC(O3)C2C(=O)O)n1` (stereo not drawn), the Potency was inactive: > 76.9 µM.

For the compound `CCOC(=O)c1c(C)[nH]c(C(=O)Cn2nnc(-c3ccccc3)n2)c1C`, the Potency was inactive: > 76.9 µM.

Consider `COC(=O)c1ccc(NC(=O)CN2C(=O)CSC2=O)cc1`, for which the Potency is inactive: > 76.9 µM.

Consider `Cc1nc2ccccn2c1P(=O)(N1CCCCC1)N1CCCCC1`, for which the Potency is inactive: > 76.9 µM.

For the compound `Cc1ccc(Nc2nc(Oc3ccc(OCc4ccccc4)nn3)nc(N3CCOCC3)n2)cc1`, the Potency is inactive: > 76.9 µM.

With `CCc1ccc(-c2nnn(Cc3nn[nH]n3)n2)cc1`, the Potency is inactive: > 76.9 µM.

Regarding `CCC(C)(C)n1nnnc1C(c1ccccc1OC)N1CCSCC1` (stereo not drawn), the Potency result is “inactive”.

`O=C(Nc1ccc(Br)cn1)c1ccc2nccnc2c1`: the Potency is inactive: > 76.9 µM.

In the case of `CC(C)(C)NC(=O)C(c1ccc(OCC(N)=O)cc1)N(C(=O)c1cccnc1)C1CC1` (stereo not drawn), the Potency was inactive: > 76.9 µM.

`CCC(C)NC(=O)c1c(C)cc(=O)oc1C` (stereo not drawn): the Potency is inactive: > 76.9 µM.

For `CCOCCNC(=O)c1ccccc1C(=O)NCCOCC`, the Potency is inactive: > 76.9 µM.

`Cc1cccc(NC(=O)N(Cc2nc3ccccc3c(=O)[nH]2)C2CCCC2)c1`: the Potency is inactive: > 76.9 µM.

With `COc1ccccc1N1CCN(CC(=O)Nc2cccc(F)c2)CC1`, the Potency was inactive: > 76.9 µM.

On to `O=C(O)CN1CCN(Cc2ccc(F)cc2Cl)C1=O`, for which the Potency was inactive: > 76.9 µM.

On to `CCOC(=O)c1sc(SCC(=O)Nc2ccc(N(C)C)cc2)nc1N`, for which the Potency is inactive: > 76.9 µM.

With `[N-]=[N+]=CC(=O)C(Cc1ccccc1)N1C(=O)c2ccccc2C1=O` (stereo not drawn), the Potency is inactive: > 76.9 µM.

In the case of `Cn1c(=O)c2c(nc(NCc3ccco3)n2CC(O)COc2ccccc2)n(C)c1=O` (stereo not drawn), the Potency is inactive: > 76.9 µM.

For the compound `CCC(C)(C)n1nnnc1CN1CCN(c2nc3cc(OC)ccc3cc2C#N)CC1`, the Potency was inactive: > 76.9 µM.

As to `COc1ccc(C(=O)OCn2nnc3ccccc3c2=O)cc1OC`, the Potency was inactive: > 76.9 µM.

`COc1ccc(NC(=O)CN2CCC3(O)CCCCC3C2c2ccccc2OC)cc1` (stereo not drawn): the Potency was inactive: > 76.9 µM.

As for `O=C(CCC1CCCC1)NCCCN1CCOCC1`, the Potency was inactive: > 76.9 µM.

Consider `Cc1cc(NC(=O)CSc2nnc(COc3cccc(C)c3C)n2Cc2ccco2)no1`, for which the Potency is inactive: > 76.9 µM.

In the case of `CC(=O)c1cccc(S(=O)(=O)N2CCCC(c3nc(-c4ccc(C)o4)no3)C2)c1` (stereo not drawn), the Potency is inactive: > 76.9 µM.

In the case of `CCC(=O)N(Cc1ccc2c(c1)OCO2)Cc1cc2cc(OC)ccc2[nH]c1=O`, the Potency was inactive: > 76.9 µM.

In the case of `COc1ccc(CCNC(=O)Cn2cnc3c(cnn3C(C)(C)C)c2=O)cc1OC`, the Potency is inactive: > 76.9 µM.

Consider `C=CCn1c(COc2cccc3ccc(C)nc23)nnc1SCC(=O)O`, for which the Potency was inactive: > 76.9 µM.

As for `CCC(Oc1ccccc1)C(=O)N1CCN(c2ccccn2)CC1` (stereo not drawn), the Potency is inactive: > 76.9 µM.

For `O=C(Cc1cn2ccsc2n1)NCCc1ccc(F)cc1`, the Potency is inactive: > 76.9 µM.

Regarding `CCCNC(=O)CCNC(=O)c1ccc(C(C)(C)C)cc1`, the Potency was inactive: > 76.9 µM.

Regarding `Cc1ccc(NC(=O)c2cc(-c3ccco3)on2)cc1`, the Potency is inactive: > 76.9 µM.

Consider `COc1ccc(N/C(C)=C2/C(=O)C(=O)N(CCO)C2c2ccc(Br)cc2)cc1` (stereo not drawn), for which the Potency is inactive: > 76.9 µM.

Turning to `CN1CCN(CCCn2cnc3c(=O)oc4ccccc4c32)CC1`, the Potency was inactive: > 76.9 µM.

Take `COc1ccc(NC(=O)N2CCN(S(C)(=O)=O)CC2)cc1OC`: the Potency is inactive: > 76.9 µM.

With `Cc1nc(-c2cccc(S(=O)(=O)N3CCOCC3)c2)cs1`, the Potency was inactive: > 76.9 µM.

`COc1ccccc1C(=O)N1CCc2ccccc21`: the Potency is inactive: > 76.9 µM.

Turning to `COCCCNC(=O)CCn1c(=O)c2ccccc2n(CC(=O)Nc2ccc(C)cc2C)c1=O`, the Potency was inactive: > 76.9 µM.

In the case of `CCN(CCCNC(=O)c1c(C)cc(=O)oc1C)c1cccc(C)c1`, the Potency was inactive: > 76.9 µM.

With `COc1cccc(-n2c(C)nnc2SCC#N)c1`, the Potency was inactive: > 76.9 µM.

Consider `O=C(c1ccncc1)c1nccn1-c1ccccn1`, for which the Potency is inactive: > 76.9 µM.

As to `O=C(Nc1ccc2c(c1)C(=O)N(C1CCCCC1)C2=O)C1CCCO1` (stereo not drawn), the Potency is inactive: > 76.9 µM.

In the case of `COCc1[nH]nc2c1C(c1ccsc1)C(C#N)=C(N)O2` (stereo not drawn), the Potency was inactive: > 76.9 µM.

For `CCc1nnc(NC(=O)CN2C(=O)c3ccccc3S2(=O)=O)s1`, the Potency is inactive: > 76.9 µM.

`O=C(O)C1C2C=CC(O2)C1C(=O)NCCC1=CCCCC1` (stereo not drawn): the Potency is inactive: > 76.9 µM.

As to `COc1ccc2oc(=O)c(C(=O)NCC3CCCO3)cc2c1` (stereo not drawn), the Potency is inactive: > 76.9 µM.

`CCOCCn1c(=O)c2c(nc3n2CCN3c2ccc(C)cc2)n(C)c1=O`: the Potency is inactive: > 76.9 µM.

As for `CCCC(=O)Nc1c(O)c2ccccc2[nH]c1=O`, the Potency was inactive: > 76.9 µM.

Take `CCOC(=O)N(Cc1ccccc1)C(C(=O)O)C(C(=O)O)N(Cc1ccccc1)C(=O)OCC` (stereo not drawn): the Potency is inactive: > 76.9 µM.

With `COc1c(F)c(F)c(-c2csc(N)n2)c(F)c1F`, the Potency is inactive: > 76.9 µM.

With `N#Cc1cc2c(=O)n3ccccc3nc2n(CCCn2ccnc2)c1=N`, the Potency was inactive: > 76.9 µM.

`COc1cc(-c2nnc(SCc3cc(=O)oc4cc(C)ccc34)o2)cc(OC)c1OC`: the Potency is inactive: > 76.9 µM.

Regarding `CCN(CC)CCNC(=O)CS(=O)Cc1nc(-c2ccc(Cl)cc2)oc1C` (stereo not drawn), the Potency is inactive: > 76.9 µM.

In the case of `Fc1ccc(-n2c(Cc3ccccc3)nnc2SCc2nc(-c3cccs3)no2)cc1`, the Potency was inactive: > 76.9 µM.

For `CCOc1ccccc1-c1nc(-c2ccc(C)nc2OC)no1`, the Potency was inactive: > 76.9 µM.

`O=S(=O)(NCc1ccco1)c1cccc(S(=O)(=O)N2CCOCC2)c1`: the Potency was inactive: > 76.9 µM.

For the compound `Cc1cc(C)c(C#N)c(N2CCCC2)n1`, the Potency is inactive: > 76.9 µM.

Turning to `O=C(CCN1CCN(c2ccc(Cl)cc2)CC1)Nc1ccccc1F`, the Potency was inactive: > 76.9 µM.

Consider `CCOc1ccc2c(c1)c1nnc(SCC3CCCO3)nc1n2C` (stereo not drawn), for which the Potency is inactive: > 76.9 µM.

As for `O=C(O)CN(c1ccc2c(c1)OCCO2)S(=O)(=O)c1ccccc1`, the Potency was inactive: > 76.9 µM.

Regarding `O=C(N1CCCC1)n1c(Cc2ccccc2)nc2ccccc21`, the Potency was inactive: > 76.9 µM.

Consider `CCN1CCCC1CNC(=O)Cn1cccc1C(=O)c1ccccc1` (stereo not drawn), for which the Potency was inactive: > 76.9 µM.

For the compound `COc1ccc(N2CCN(C(=O)CSc3nnc(-c4cccnc4)n3-c3ccccc3)CC2)cc1`, the Potency is inactive: > 76.9 µM.

Regarding `O=C(Nc1nc2nc(-c3ccccc3)cc(-c3ccccc3)n2n1)c1ccco1`, the Potency was inactive: > 76.9 µM.

As to `Nn1cnnc1SC1CCCCC1NS(=O)(=O)c1ccccc1` (stereo not drawn), the Potency is inactive: > 76.9 µM.

Take `CCCN(CCC)CCNC(=O)Cn1cnc2sc(C)c(S(=O)(=O)N3CCOCC3)c2c1=O`: the Potency is inactive: > 76.9 µM.

For `CC(C)C1C(C#N)=C(N)Oc2n[nH]c(-c3ccccc3)c21` (stereo not drawn), the Potency was inactive: > 76.9 µM.

On to `COc1cccc(=O)c2c(C)n(C)c(C)c12`, for which the Potency was inactive: > 76.9 µM.

For the compound `CC1=C(C(N)=O)C(c2ccc(Cl)cc2)NC(=O)N1` (stereo not drawn), the Potency is inactive: > 76.9 µM.

Regarding `COc1cccc(OCC(=O)NC2CCCCC2)c1`, the Potency is inactive: > 76.9 µM.

For `CCC1Oc2ccccc2N(CC(=O)NCCN2CCc3ccccc3C2)C1=O` (stereo not drawn), the Potency is inactive: > 76.9 µM.

As for `c1ccc2[nH]c(-c3cscn3)nc2c1`, the Potency was inactive: > 76.9 µM.

`COCc1[nH]nc2c1C(c1ccc(F)cc1F)C(C#N)=C(N)O2` (stereo not drawn): the Potency is inactive: > 76.9 µM.

As to `CC(=O)OC(C(=O)NC1CCCCC1)c1ccc(C#N)cc1` (stereo not drawn), the Potency is inactive: > 76.9 µM.

Take `O=c1cc(-c2ccccc2)c2ccccc2[nH]1`: the Potency is inactive: > 76.9 µM.

Regarding `O=S(=O)(c1ccc2ccccc2c1)N1CCN(S(=O)(=O)N2CCOCC2)CC1`, the Potency was inactive: > 76.9 µM.

Regarding `CCN1CCN(c2ccc(-n3c(C)nc4c(cnn4-c4ccccc4Cl)c3=O)cc2)CC1`, the Potency entry was “inactive”.

Source of the values: PubChem BioAssay AID360 (National Center for Advancing Translational Sciences (NCATS), 2006).
